According to ChEMBL document CHEMBL4888484, “Replenishing the malaria drug discovery pipeline: Screening and hit evaluation of the MMV Hit Generation Library 1 (HGL1) against asexual blood stage Plasmodium falciparum ,using a nano luciferase reporter read-out” (2022):
The whole screen tested about 150,000 compounds, of which about 540 (0.36%) showed an effect of 50% or more. The list shows a part of the results.

These molecules were tested on Plasmodium falciparum (assay: Primary screen in NF54 nanoGlo assay, in single point, at 2uM, 72h; a lower Z score goes with more inhibition). Conditions: timepoint 72 hour.
Format: functional, Erythrocyte
In the case of `COC(=O)c1coc([C@H](CO)NC(=O)C(C)(C)C)n1`, the “% Inhibition” value is reported as -3% and the Z score is reported as 0.53.
With `O=C1CCN(CC(=O)N[C@H](c2ccc(F)cc2)C2CCCC2)C(=O)N1` the “% Inhibition” value was -8% and the Z score was 0.83.
For `C[C@H]1CCCCN1C(=O)c1cc(-c2ccc(C3CCCCC3)cc2)on1`, the “% Inhibition” value was -19% and the Z score was 1.7.
For `C[C@H]1CN(C(=O)Cn2cc(Cn3cccn3)nn2)CC(C)(C)O1`, the “% Inhibition” value was -4% and the Z score was 0.58.
`Cc1noc(C)c1S(=O)(=O)N[C@H]1CCCc2c1cnn2C` was tested, and the “% Inhibition” value was -4% and the Z score was 0.51.
In the case of `CC[C@H](NC(=O)NCCc1ccco1)c1nc(C)cs1`, the “% Inhibition” value is reported as 4% and the Z score is reported as -0.5.
`COCCc1noc([C@H](C)NC(=O)c2ccc(C)c(C)c2)n1` was tested, and the “% Inhibition” value was -15% and the Z score was 1.86.
`COc1ccccc1CNC(=O)c1cn2c(n1)COCC2` was tested, and the “% Inhibition” value was 1% and the Z score was -0.24.
In the case of `COc1ccc(/C=C/c2nc(CCNc3ccccc3)no2)cc1`, the “% Inhibition” value is reported as -9% and the Z score is reported as 0.97.
`O=C(NC1CCCCC1)[C@@H]1COC2(CCN(C(=O)c3ccco3)CC2)N1C(=O)c1ccccc1` was tested, and the “% Inhibition” value was 6% and the Z score was -0.98.
`C#CCN(CCC#N)Cc1cccc(C)n1` was tested, and the “% Inhibition” value was 2% and the Z score was -0.25.
In the case of `COCCCNC(=O)C[C@H]1NC(=O)c2ccccc2NC1=O`, the “% Inhibition” value is reported as -8% and the Z score is reported as 0.99.
With `COc1ccc(-c2nc(N(CCC(=O)Nc3ccccc3)Cc3ccccc3)c3ccccc3n2)cc1` the “% Inhibition” value was -7% and the Z score was 1.33.
With `O=C(Cn1nc2c3cc(Cl)ccc3ncn2c1=O)Nc1ccccc1` the “% Inhibition” value was 0% and the Z score was 0.
In the case of `CCCCC(=O)N1CCC(C(=O)N[C@@H]2CCCC[C@H]2NC(=O)c2ccccc2C)CC1`, the “% Inhibition” value is reported as -13% and the Z score is reported as 1.56.
In the case of `O=C(Nc1ccc2nc(N3CCCC3)sc2c1)c1ccc2[nH]cnc2c1`, the “% Inhibition” value is reported as 2% and the Z score is reported as -0.3.
With `O=C(c1ccc2[nH]ccc2c1)N1CC(N2C(=O)CNC2=O)C1` the “% Inhibition” value was -7% and the Z score was 1.33.
In the case of `COc1cc(C(=O)N2CCNC[C@H]2C(=O)Nc2ccc(F)cc2)ccn1`, the “% Inhibition” value is reported as -6% and the Z score is reported as 0.86.
In the case of `O=C(CN1CCCN2CCC[C@H]2C1)N1CCCc2ccccc21`, the “% Inhibition” value is reported as -9% and the Z score is reported as 1.11.
In the case of `CCCN(CC(=O)O)C(=O)c1cc(C)n(C(C)C)c1C`, the “% Inhibition” value is reported as -1% and the Z score is reported as 0.18.
For `CC(C)CNC(=O)C1Cc2cc(C(F)(F)F)ccc2N2CCN(CCOc3ccccc3)CC12` (stereo not given), the “% Inhibition” value was -5% and the Z score was 0.73.
In the case of `Cn1cnnc1CN1CCC2(CCC(=O)N(C3CC3)C2)CC1`, the “% Inhibition” value is reported as -13% and the Z score is reported as 1.57.
With `Clc1ccc(-c2nnc(-c3ccco3)c3nocc23)cc1` the “% Inhibition” value was 3% and the Z score was -0.41.
With `CC(C)(C)C(=O)NCCn1ccc(-c2cccs2)n1` the “% Inhibition” value was -10% and the Z score was 1.26.
In the case of `OCC1OC(Nc2ccc(-c3ccc(NC4CC(O)C(CO)O4)cc3)cc2)CC1O` (stereo not given), the “% Inhibition” value is reported as -1% and the Z score is reported as 0.1.
For `CC(=O)N(C)CC(=O)Nc1ccc(Oc2nc(C)cs2)c(F)c1`, the “% Inhibition” value was 27% and the Z score was -3.04.
In the case of `Cc1n[nH]c(NCc2cccc(C3CC3)c2)c1C(N)=O`, the “% Inhibition” value is reported as 6% and the Z score is reported as -1.03.
In the case of `Cc1cccc(Cn2ncnc2[C@@H](C)CN2CCCC2)c1`, the “% Inhibition” value is reported as -19% and the Z score is reported as 1.77.
With `CC1CCCN(C(=O)c2cc(Br)c(C(=O)N3CCCC(C)C3)cc2Br)C1` (stereo not given) the “% Inhibition” value was -20% and the Z score was 3.16.
For `CC1(C)COCCN1S(=O)(=O)c1cnc2sccn12`, the “% Inhibition” value was -7% and the Z score was 1.41.
In the case of `O=S(=O)(Nc1noc2ccc(C(F)(F)F)cc12)c1cnn(C2CCOCC2)c1`, the “% Inhibition” value is reported as 4% and the Z score is reported as -0.44.
For `Cc1ccc(CNC(=O)CCn2cnc3oc(C)c(C)c3c2=O)o1`, the “% Inhibition” value was 0% and the Z score was -0.03.
With `N#CC1CN(c2nc3ccccc3s2)CC12C(=O)Nc1ccccc12` (stereo not given) the “% Inhibition” value was -15% and the Z score was 2.25.
In the case of `O=C(Cn1cccc1-c1nc(-c2ccc(F)cc2)no1)NCc1cccc(Cl)c1`, the “% Inhibition” value is reported as 5% and the Z score is reported as -0.62.
For `Cn1cc(-n2cc(C(=O)NCCOCC(F)(F)F)ccc2=O)cn1`, the “% Inhibition” value was 5% and the Z score was -0.86.
With `CCn1ccc(C(=O)N2CC3(C[C@H](N4CCCCC4)CO3)C2)n1` the “% Inhibition” value was -11% and the Z score was 1.77.
`CNC(=O)c1ccccc1OCc1noc2c1COCC2` was tested, and the “% Inhibition” value was 0% and the Z score was -0.06.
`COc1ccc(C(=O)Nc2cncc(C(C)C)c2)o1` was tested, and the “% Inhibition” value was 2% and the Z score was -0.18.
For `Cc1cnc(C2CCC2)n1[C@H]1CCCN(C(=O)c2cccc(C#N)c2)C1`, the “% Inhibition” value was -19% and the Z score was 2.42.
`CC1CCN(C(=O)c2ccc3[nH]nnc3c2)C2CCCCC12` (stereo not given) was tested, and the “% Inhibition” value was -5% and the Z score was 0.93.
With `Cc1nc(NC(=O)N2CCOC3(CCC3)C2)ccc1Br` the “% Inhibition” value was -15% and the Z score was 2.32.
With `COc1cc(C(=O)N2CCN(CC3CC3)[C@@H]3CS(=O)(=O)C[C@@H]32)ccc1C` the “% Inhibition” value was -5% and the Z score was 1.07.
`Cc1c(CC(=O)N2CCNC(=O)C2)c2c(n1Cc1ccccc1F)CCCC2=O` was tested, and the “% Inhibition” value was -2% and the Z score was 0.32.
`C[C@@H](c1nc(-c2cccs2)no1)N1CCNCC1` was tested, and the “% Inhibition” value was -14% and the Z score was 1.78.
With `Clc1ccc2oc(NCc3c[nH]nc3-c3cccnc3)nc2c1` the “% Inhibition” value was 0% and the Z score was 0.
`CC(C)Cc1cc(C(=O)N2CCn3cncc3C2)on1` was tested, and the “% Inhibition” value was 0% and the Z score was 0.08.
In the case of `CCN1CCN(c2cc(C(=O)O)c3cc(NS(=O)(=O)c4cc(F)ccc4C)ccc3n2)CC1`, the “% Inhibition” value is reported as -12% and the Z score is reported as 1.94.
`Cc1cc(C)n(CC(=O)N[C@H]2CCCN(CCCc3ccccc3)C2)n1` was tested, and the “% Inhibition” value was -12% and the Z score was 1.63.
For `COCCN1C[C@]2(CCCN(C(=O)c3cc(-c4ccsc4)n[nH]3)C2)CCC1=O`, the “% Inhibition” value was -14% and the Z score was 1.45.
In the case of `CC(C)(C)CN(C(=O)COC[C@H]1CCCO1)c1ccccn1`, the “% Inhibition” value is reported as -11% and the Z score is reported as 1.44.
`C=CC[C@@H]1N(CCN2C(=O)CCC2=O)CCCC1(C)C` was tested, and the “% Inhibition” value was 2% and the Z score was -0.35.
`Cc1cc(N2CCOCC2)ccc1NC(=O)C(=O)NCCc1ccc2c(c1)OCO2` was tested, and the “% Inhibition” value was 3% and the Z score was -0.45.
With `COc1ccccc1CCc1nc2ccccc2n1C1CCNCC1` the “% Inhibition” value was 1% and the Z score was -0.22.
In the case of `CN(CCNC(=O)Cc1ccc(F)c(Br)c1)C1CC1`, the “% Inhibition” value is reported as -3% and the Z score is reported as 0.35.
For `CCN1CCCn2nc([C@H]3CCCN(Cc4cc(C)nn4C)C3)cc2C1=O`, the “% Inhibition” value was -12% and the Z score was 2.28.
